Data: article PMC10630320
Read-outs that look alike come from different tables or passages of the source. No constants are given. Whether binding was seen depends on the method and setting. Binding seen in cells or lysates may run through a third protein. Some results given as binding are weak or reduced against the parent protein; the word gives no strength.

Chains of the proteins cited; added tags and fusions are not shown. Lines headed by an entry give the natural chain unless they say otherwise; changes in a name come on top. A line that says so, or that is headed by a name, gives the form on record, which may keep a tag or linker. Residues count along the entry.
UniProt Q96ES7: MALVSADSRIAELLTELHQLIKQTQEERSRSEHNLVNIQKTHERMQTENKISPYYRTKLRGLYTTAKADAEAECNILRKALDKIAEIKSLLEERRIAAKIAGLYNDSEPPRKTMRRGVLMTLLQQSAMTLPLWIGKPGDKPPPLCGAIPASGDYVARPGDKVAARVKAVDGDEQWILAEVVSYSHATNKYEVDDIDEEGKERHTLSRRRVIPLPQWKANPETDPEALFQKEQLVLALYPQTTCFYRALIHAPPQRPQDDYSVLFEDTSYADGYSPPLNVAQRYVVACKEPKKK
SGF29-C-WT: residues 54-293 of Q96ES7
SGF29-C-D194A (Q96ES7, form named): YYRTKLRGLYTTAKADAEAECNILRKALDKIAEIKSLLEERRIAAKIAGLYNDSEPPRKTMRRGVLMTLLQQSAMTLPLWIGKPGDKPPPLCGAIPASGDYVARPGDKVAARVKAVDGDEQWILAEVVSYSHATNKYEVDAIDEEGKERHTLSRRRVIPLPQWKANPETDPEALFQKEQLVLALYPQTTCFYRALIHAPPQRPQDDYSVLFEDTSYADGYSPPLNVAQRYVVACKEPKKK
UniProt O75528: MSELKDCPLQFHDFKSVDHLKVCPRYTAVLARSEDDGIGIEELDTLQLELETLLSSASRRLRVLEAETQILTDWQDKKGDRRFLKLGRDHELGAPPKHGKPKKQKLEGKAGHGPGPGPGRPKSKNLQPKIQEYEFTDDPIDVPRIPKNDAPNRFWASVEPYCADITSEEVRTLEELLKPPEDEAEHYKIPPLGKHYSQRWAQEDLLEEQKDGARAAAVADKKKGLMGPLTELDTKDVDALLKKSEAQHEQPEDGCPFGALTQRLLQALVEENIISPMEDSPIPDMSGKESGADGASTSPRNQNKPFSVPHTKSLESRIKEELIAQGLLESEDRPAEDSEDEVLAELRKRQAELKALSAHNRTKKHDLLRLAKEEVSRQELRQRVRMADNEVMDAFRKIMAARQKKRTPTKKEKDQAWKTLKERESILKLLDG
UniProt Q92830: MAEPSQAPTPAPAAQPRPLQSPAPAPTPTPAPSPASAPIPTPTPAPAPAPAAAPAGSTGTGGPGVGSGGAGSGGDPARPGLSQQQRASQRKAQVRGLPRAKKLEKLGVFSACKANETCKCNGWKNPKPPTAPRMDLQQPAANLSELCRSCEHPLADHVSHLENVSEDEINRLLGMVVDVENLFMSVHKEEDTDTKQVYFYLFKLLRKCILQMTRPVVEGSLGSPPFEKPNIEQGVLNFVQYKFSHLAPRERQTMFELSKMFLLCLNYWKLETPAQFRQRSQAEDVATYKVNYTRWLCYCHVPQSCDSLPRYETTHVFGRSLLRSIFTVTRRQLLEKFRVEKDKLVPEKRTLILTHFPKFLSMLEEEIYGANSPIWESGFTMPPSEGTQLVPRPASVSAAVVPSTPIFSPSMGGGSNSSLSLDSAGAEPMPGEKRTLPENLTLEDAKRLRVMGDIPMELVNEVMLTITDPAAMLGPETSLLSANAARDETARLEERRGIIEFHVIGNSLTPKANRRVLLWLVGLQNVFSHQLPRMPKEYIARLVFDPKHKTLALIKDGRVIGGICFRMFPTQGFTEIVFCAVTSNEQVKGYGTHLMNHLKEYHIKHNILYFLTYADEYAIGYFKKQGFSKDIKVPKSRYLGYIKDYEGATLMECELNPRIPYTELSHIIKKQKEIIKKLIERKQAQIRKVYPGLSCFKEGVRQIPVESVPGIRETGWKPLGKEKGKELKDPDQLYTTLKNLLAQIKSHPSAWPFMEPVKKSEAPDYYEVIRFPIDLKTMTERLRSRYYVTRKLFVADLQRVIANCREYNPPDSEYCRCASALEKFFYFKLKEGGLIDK
UniProt P08047: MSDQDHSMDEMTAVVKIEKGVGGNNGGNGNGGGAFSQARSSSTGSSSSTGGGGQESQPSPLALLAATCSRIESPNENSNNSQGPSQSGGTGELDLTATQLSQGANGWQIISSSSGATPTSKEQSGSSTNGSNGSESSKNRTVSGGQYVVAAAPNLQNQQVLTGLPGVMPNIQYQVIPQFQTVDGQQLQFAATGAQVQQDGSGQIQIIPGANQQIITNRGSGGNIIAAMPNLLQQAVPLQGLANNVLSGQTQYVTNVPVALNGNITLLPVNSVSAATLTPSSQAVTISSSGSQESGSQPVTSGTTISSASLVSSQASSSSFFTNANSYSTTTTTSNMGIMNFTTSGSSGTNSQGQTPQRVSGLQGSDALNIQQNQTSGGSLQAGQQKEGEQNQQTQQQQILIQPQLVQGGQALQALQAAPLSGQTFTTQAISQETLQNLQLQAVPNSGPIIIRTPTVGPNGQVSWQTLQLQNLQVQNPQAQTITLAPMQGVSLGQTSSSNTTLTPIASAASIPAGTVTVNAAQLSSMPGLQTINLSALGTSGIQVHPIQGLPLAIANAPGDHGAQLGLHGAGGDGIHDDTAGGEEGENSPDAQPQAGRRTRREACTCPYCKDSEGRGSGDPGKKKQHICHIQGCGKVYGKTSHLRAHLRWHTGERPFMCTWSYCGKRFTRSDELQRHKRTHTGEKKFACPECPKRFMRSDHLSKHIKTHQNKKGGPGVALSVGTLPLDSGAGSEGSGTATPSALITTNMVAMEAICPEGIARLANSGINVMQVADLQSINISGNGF

B1: mediator of RNA polymerase II transcription subunit 4 (MED4) (protein, UniProt Q9NPJ6 1-270)
chain: MAASSSGEKEKERLGGGLGVAGGNSTRERLLSALEDLEVLSRELIEMLAISRNQKLLQAGEENQVLELLIHRDGEFQELMKLALNQGKIHHEMQVLEKEVEKRDSDIQQLQKQLKEAEQILATAVYQAKEKLKSIEKARKGAISSEEIIKYAHRISASNAVCAPLTWVPGDPRRPYPTDLEMRSGLLGQMNNPSTNGVNGHLPGDALAAGRLPDVLAPQYPWQSNDMSMNMLPPNHSSDFLLEPPGHNKENEDDVEIMSTDSSSSSSESD

How the values were obtained:
[1] = molecular target: Flag-EGFP-SGF29-R207P (human) (UniProt Q96ES7); experiment: co-IP; anti-Flag M2 affinity gel on lysates in 0.3% CHAPS, 40 mM HEPES pH 7.5, 1 mM EDTA, 120 mM NaCl, 4 °C overnight; elution with Flag peptides; immunoblot of endogenous partners; methods: transfected HEK293T, legend of Fig. 5d: hMPCs
[2] = molecular target: Flag-EGFP-SGF29-WT (human) (UniProt Q96ES7); experiment: as above
[3] = molecular target: T1, mediator of RNA polymerase II transcription subunit 4 (MED4) (human (endogenous in HEK293T)) (UniProt Q9NPJ6); experiment: co-IP; reverse co-IP using MED4 antibody for immunoprecipitation; endogenous proteins
T1 sequence: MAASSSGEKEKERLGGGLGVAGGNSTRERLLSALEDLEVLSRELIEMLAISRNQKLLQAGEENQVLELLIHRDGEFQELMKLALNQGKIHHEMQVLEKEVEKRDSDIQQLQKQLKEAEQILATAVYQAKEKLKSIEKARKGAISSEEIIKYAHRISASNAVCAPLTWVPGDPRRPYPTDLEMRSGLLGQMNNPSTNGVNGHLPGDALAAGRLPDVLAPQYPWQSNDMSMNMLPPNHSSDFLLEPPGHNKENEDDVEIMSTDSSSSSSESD

SGF29-C-D194A (human) = SGF29-C-D194A (human) (UniProt Q96ES7); experiment: co-sedimentation; pelleting assay: purified His-tagged SGF29-C variants added into soluble nuclear extract in vitro; droplet pellets analysed by western blot; only the target purified
SGF29-C-WT (human) = SGF29-C-WT (human) (UniProt Q96ES7); experiment: as above
[4] = molecular target: Flag-EGFP-SGF29-R207P (human) (UniProt Q96ES7); experiment: co-IP; anti-Flag M2 affinity gel on lysates in 0.3% CHAPS, 40 mM HEPES pH 7.5, 1 mM EDTA, 120 mM NaCl, 4 °C overnight; elution with Flag peptides; immunoblot of endogenous partners; methods: transfected HEK293T, legend of Fig. 5d: hMPCs; remark: listed apart in the source
[5] = molecular target: Flag-EGFP-SGF29-WT (human) (UniProt Q96ES7); experiment: as above; remark: listed apart in the source

Molecule | binding [1] | binding [2] | binding [3] | binding (SGF29-C-D194A (human)) | binding (SGF29-C-WT (human)) | binding [4] | binding [5]
ADA3 (from UniProt O75528 1-432) | binds | binds |  |  |  |  | 
KAT2A (GCN5) (from UniProt Q92830 1-837) | binds | binds |  |  |  |  | 
Transcription factor SP1 (from UniProt P08047 1-785) | no binding | binds | binds | binds | binds |  | 
endogenous SGF29 (from UniProt Q96ES7 1-293) |  |  | binds |  |  |  | 
B1 |  |  |  | binds | binds | no binding | binds
